Source: the supplement of paper PMC3724861
The list shows a part of the results.

Test system: T1, Caupolican (Caup) homeodomain DNA-binding domain
T1 sequence: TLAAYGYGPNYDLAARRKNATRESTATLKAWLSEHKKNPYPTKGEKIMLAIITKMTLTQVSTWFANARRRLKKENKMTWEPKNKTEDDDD
Assay: PBM E-score (8-mer, recovered from the published 9-mer minima) (E-score (dimensionless, -0.5 to 0.5)); Drosophila protein; higher = stronger relative binding preference, active = 0.31 or more
Summary of the method: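 Caup's homeodomain DNA-binding domain (residues 214-303) was produced by in vitro transcription and translation and applied at 100 nM to custom-designed protein binding microarrays. Each value is an enrichment score giving relative binding preference for a short DNA word; higher means stronger. Published 9-mer scores were the minimum of their two constituent 8-mer scores, and the 8-mer values were recovered from those minima. A cutoff of 0.31 marks candidate binding sequences.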

Sequence	PBM E-score
AACCCCCT	inactive: -0.113
ATAGGTTC	inactive: 0.027
GTTCGAAA	inactive: 0.0496
AAGTTTTA	inactive: 0.0992
CCGCCATA	inactive: -0.0109
GCACACCA	inactive: -0.0961
ATTCTTCC	inactive: -0.0716
CCCACTCC	inactive: -0.204
AAGCCACA	inactive: -0.0703
CATCTCCG	inactive: -0.0463
TCGCGTCA	inactive: 0.0288
GTCCATTA	inactive: 0.13
CCCGGAGC	inactive: -0.204
GCACTATA	inactive: 0.0436
AACGACCC	inactive: -0.213
ATGTCTGC	inactive: 0.1
AACAGGTC	inactive: 0.149
TGACAGAA	inactive: 0.143
ATGAAAAC	inactive: 0.131
ACTACACA	active: ≥ 0.357
CAGATGGA	inactive: 0.0599
CGCGATAA	inactive: 0.0188
ATGCATTG	inactive: 0.136
AGGGGCCG	inactive: -0.338
CTCCTAAG	inactive: -0.0752

Sequence	PBM E-score
GGGTGATA	inactive: 0.00682
CACAGACA	inactive: 0.161
CCGATAAA	inactive: 0.0677
GACCATCC	inactive: -0.0648
AAACCTCT	inactive: -0.0627
CGAGGTCC	inactive: -0.201
ATTCCATG	inactive: 0.123
ATTACGCA	inactive: 0.0765
CTATGCCC	inactive: -0.184
AAACTGGG	inactive: -0.152
AGAGTTCC	inactive: -0.111
ACCTTGTC	inactive: 0.306
AGAGTCCG	inactive: -0.106
ACTCCGTG	inactive: -0.0339
GATATACA	inactive: 0.263
CCTTGGTA	inactive: 0.0171
CATTGAGG	inactive: -0.00528
CACGTCGA	inactive: 0.0163
AGGTAGGC	inactive: -0.116
AGCACTAA	inactive: -0.00029
CTTTGGTC	inactive: -0.0812
AACGCTAA	inactive: -0.0108
CGGGATTC	inactive: 0.0153
ATCCATGG	inactive: -0.0915
CTAAATCC	inactive: -0.102

Sequence	PBM E-score
GCTTGTAA	active: 0.384
AGTTCTCC	inactive: -0.0986
CCTATAGA	inactive: -0.0341
CCCCGAAG	inactive: -0.219
AAGCTGAT	inactive: 0.0735
GAGATCAA	inactive: 0.0168
CTCACAAG	inactive: 0.0655
CGTATATA	inactive: 0.148
CCGGGACC	inactive: -0.275
AAGACCAT	inactive: -0.00667
GAAGGGAC	inactive: -0.136
ATGTTTCA	inactive: 0.243
GACAGGTA	inactive: 0.183
AGGGAGAG	inactive: -0.181
GGATCGCC	inactive: -0.201
AAAGACGA	≥ 0.0966
GGATCAAA	inactive: 0.0394
AATTTTCG	inactive: 0.012
AGGACAAG	inactive: 0.254
GGCTACAC	inactive: 0.125
ACAAGTAC	active: 0.35
CACAGCAC	inactive: 0.0363
AAAGTGTG	inactive: 0.119
AAAACTCC	inactive: -0.138
CCAACACC	inactive: -0.034

Sequence	PBM E-score
GTCGTAAA	inactive: 0.16
CGTATAGC	inactive: -0.0127
AGAACAAT	inactive: 0.21
CACTACTC	inactive: 0.0638
ACCAAAGA	inactive: 0.0532
TAGCAATA	inactive: 0.118
ATTGGGAG	inactive: -0.0672
ATGCACTG	inactive: 0.0844
AATATTTA	inactive: 0.179
GCCAAGGC	inactive: -0.29
CAGTGTCG	inactive: 0.131
CTAAAAAG	inactive: -0.0645
TCCACACA	inactive: 0.0566
AGATCGAC	inactive: 0.0993
AAATTCGA	inactive: 0.00593
GGCATTGA	inactive: -0.0356
CGAACGCC	inactive: -0.163
AGCGGAAT	inactive: -0.0438
GATCATTA	≥ 0.154
AGCTGGGC	inactive: -0.237
GCAGTCAA	inactive: 0.0352
CCAAATGA	inactive: 0.0802
CACGATAG	inactive: 0.0391
AGTTACAG	inactive: 0.189
ACACGGTC	inactive: 0.219

Sequence	PBM E-score
AAATGTGA	inactive: 0.18
CCTTGTCA	active: 0.342
AGCGCTCA	inactive: -0.198
AATGACGA	inactive: 0.155
AATATTGC	inactive: 0.153
CACACAGC	inactive: -0.0631
CCTGAATA	inactive: 0.0561
CATAATAA	inactive: 0.196
AATTGCGT	inactive: -0.0149
ACTCTCAC	inactive: -0.0203
AGATACTG	inactive: 0.0481
CAGAGGCA	inactive: -0.086
AGACGGAT	inactive: 0.0063
AAGCCGCT	inactive: -0.189
ATAGAAAA	≥ 0.147
ACCGTATA	inactive: 0.0588
ATATGTAC	active: 0.387
CGCGCACC	≥ -0.0925
AGAGCAGA	inactive: 0.00149
GAACGCGA	≥ 0.0514
CGAATTCG	inactive: -0.111
GCATATCC	inactive: 0.0416
CGTCCAGA	inactive: -0.161
TACTACCA	inactive: 0.138
CAAAGATA	inactive: 0.0292

Sequence	PBM E-score
ATCGGATC	inactive: 0.0462
CAATCCAA	inactive: 0.0246
AGGCGTTA	inactive: -0.0569
ACGTGTAC	active: 0.367
CTCGCCGA	inactive: -0.183
AGTATAAT	inactive: 0.159
GACTACTC	inactive: 0.00883
CCGTGCAG	inactive: -0.124
GAAGCACC	inactive: -0.161
CCGGACAC	inactive: 0.0922
ATCTTGCA	≥ 0.0894
TGGCCCCA	inactive: -0.226
AGAGAACC	inactive: -0.138
ACTTGGGC	inactive: -0.214
CCTAAGAG	inactive: -0.047
GAATTCCA	inactive: 0.0917
AAATCTTC	inactive: -0.0129
GATAGAAA	inactive: 0.0286
TCCCAGGA	inactive: -0.203
CTAGATAG	inactive: 0.0481
ATACGGAA	inactive: 0.0863
ACCTGCCT	inactive: -0.114
AGTCACGC	inactive: -0.0732
CCGATCGA	inactive: -0.133
GGCCCATA	inactive: -0.172

Sequence	PBM E-score
GGACGCTA	inactive: -0.163
AAGCTTGC	inactive: -0.0998
CCGTAGAA	inactive: -0.0624
ACCGCGAC	inactive: -0.0257
GCTCAAGC	inactive: -0.211
AAAAATAA	inactive: 0.0486
TTAAGAAA	inactive: -0.034
CCCGGTCC	inactive: -0.297
AGAAAATA	inactive: 0.0566
CACGTGGG	inactive: -0.145
ATTCCCGG	inactive: -0.00757
ACAGCGAC	inactive: 0.0156
CGGCAGTA	inactive: -0.147
AGGTAGAG	inactive: -0.0323
CGGCTATC	inactive: -0.134
CTGGCCAA	inactive: -0.112
AAGGGGCC	inactive: -0.208
ACGGTTGC	inactive: -0.0605
GTTATCGA	inactive: 0.0862
ATGCGCGC	inactive: -0.0331
ACTTAAAA	inactive: 0.034
CCTTGGCA	inactive: -0.104
GTATCAAA	inactive: 0.147
CACATTCC	inactive: 0.0403
CCCATAGG	inactive: -0.163

Sequence	PBM E-score
ACGGGAGT	≥ 0.00308
CCCTGCAA	inactive: -0.0947
CTTAACAC	inactive: 0.226
AAGCCCTA	≥ -0.0227
CAAGCGTA	inactive: 0.104
CACCTCGC	inactive: -0.185
AGTTATTG	inactive: 0.11
GGTGGTCA	inactive: -0.0974
ACTCCACC	inactive: 0.00423
ATCTTTTC	inactive: 0.122
AACTATTC	inactive: 0.0523
AGGCAGAG	inactive: -0.123
AGGAGCCG	inactive: -0.281
CCCTATTC	inactive: -0.0466
CCCGCTGA	inactive: -0.187
ATTCCCGC	inactive: -0.054
ACATAGCC	inactive: 0.219
AGAGAACA	inactive: 0.194
CCACTGAA	inactive: -0.0774
CATTAGCC	inactive: -0.0809
AGCCGACC	inactive: -0.169
CTTTTAGC	inactive: -0.00461
TCACCAAA	inactive: 0.087
ACGAGATG	inactive: 0.063
GCTCTCTA	inactive: -0.085

Sequence	PBM E-score
ATGCGATG	inactive: 0.0107
GCGTAAAA	inactive: 0.0211
CGTTGAAA	inactive: -0.083
CTGGCCAG	inactive: -0.181
AACTCTAA	inactive: 0.0183
GGATGATA	inactive: 0.0469
GCGAGCAA	inactive: -0.0626
CTCTAAAC	inactive: 0.0272
CTGCCACA	inactive: -0.0532
AAGCCTGT	inactive: 0.0816
CGCCGCAC	≥ -0.0469
CGACTGTC	inactive: 0.00328
CGCAAATC	inactive: 0.00809
AGCACAAG	inactive: 0.0143
ACGCTCAA	inactive: -0.00298
CGCGCCCG	inactive: -0.298
AACCGGTC	inactive: -0.0609
CTTGAAAA	inactive: 0.018
AATTTCCC	inactive: 0.0249
ATCCCCTA	inactive: -0.106
AGACCGGA	inactive: -0.0653
CGAGAGCA	inactive: -0.0181
ATTTCCGC	inactive: -0.0418
AGATCCGA	inactive: -0.0357
